Reference: the RNAGym collection of RNA variant scans (doi:10.1093/nar/gkz1192)
Read counts are not given, so values of variants with three or more changes are uncertain.

B1: CPEB3 Ribozyme (parent)
chain: UAACAGGGGGCCACAGCAGAAGCGUUCACGUCGCAGCCCCUGUCAGAUUCUGGUGAAUCUGCGAAUUCUGCUGUAUAUCUC

Variants of: B1
Test: self-cleavage, relative activity (ratio to wild type); higher = more cleavage; in vitro, sequencing
Method in brief: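 For each CPEB3 ribozyme variant, relative activity is its cleaved/total read fraction divided by the unmutated ribozyme's. Barcoded error-prone PCR libraries were transcribed by T7 RNA polymerase (5 hours, 37°C) and held in DNase I for 15 min before an EDTA stop, with cleavage occurring throughout. Template-switching reverse transcription and Illumina sequencing were used to read the RNAs. A 5-read minimum applied, and results are the mean of three batches.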

Variant	self-cleavage
UAACAGGGGGCCACAGCAGAUGCGUUCACGUCGCACGCCCUGUCAGAUUCUGGUGAUUCUGCGAAUUCUGCUGUAUAUCUC [A21U G36C C37G A57U]	0.16
UAACAGGGGGCCACAGCAGAUGCGUUCACGUCGCAGCCCCUGUCGGAUCUUGGUGAAUCUGCGAAUUCAGCUGUAUAUCUC [A21U A45G U49C C50U U69A]	0.1
UAACAGGGGGCCACAGCAGAUGCAUUCACGUCGCAGCCCUUGUCAGAUUCUGGUGGAUCUGCGAGUUCUGCUGUAUAUCUC [A21U G24A C40U A56G A65G]	0.07
UAACAGGGGGCCACAGCAGAUGCGUUCACGUCGCAGCCCCUGUCAGAUUCUAGUGAAUCCGCGAAUUCUGCUGUAUAUCUC [A21U G52A U60C]	0.17
UAACAGGGGGCCACAGCAGAUGCGUUCACGUCGCAGCCCCUGUCAGAUUCUGGUGAAUGCGCGGAUUCUGCUGUAUAUCUC [A21U C59G U60C A64G]	0.09
UAACAGGGGGCCACAGCAGAUGCAUUCACGUCGCAGCCCCUGUCAGAUUCUGGUGGAUCUGCGGAAUCUGCUGUAUAUCUC [A21U G24A A56G A64G U66A]	0.12
UAACAGGGGGCCACAGCAGAUGCGUUCACGUCGCAGCACCUGUCAGAUUCUGGUGAAUCUGCGAACUCUGCUGUAUAUCUC [A21U C38A U66C]	0.13
UAACAGGGGGCCACAGCAGAUGCGCUCACGUCGCUGCCCCUGUCAGAUUCUGGUGAAUCUGCGAGUUCUGCUGUAUGUCUC [A21U U25C A35U A65G A77G]	0.24
UAACAGGGGGCCACAGCAGAUCCGUUCACGUCGCAGCCCCUGUCAGAUCCUGGUGAAUCUGCGAAUUCUGCUGUAUAUCUC [A21U G22C U49C]	0.23
UAACAGGGGGCCACAGCAGAUGCGCUCGCGUCGCAGCCCCUGUCAGAUUCUGGUGAAUCCGCGAAUUCUGCUGUAUAUCUC [A21U U25C A28G U60C]	0.08
UAACAGGGGGCCACAGCAGAUCCGUUCACGUCGCAGCCCCUGUCAGAUUCGGGUGAAUCUGCGGAUUCAGCUGUAUAUCUC [A21U G22C U51G A64G U69A]	0.11
UAACAGGGGGCCACAGCAGAUGCGUUCACGUCGCAGCCCCUGUCGGAUUCAGGUGAAUCUGCGAAUUCUGCUGUAUAUCCC [A21U A45G U51A U80C]	0.28
UAACAGGGGGCCACAGCAGAUGCGGUCACGUCGCAGCCCCUGUCAUAUUCUGGUGAAUCUGCGAAUUCUGCUGUAUAUUUC [A21U U25G G46U C79U]	0.19
UAACAGGGGGCCACAGCAGAUGCGCUCACGUCGCAGCCCCUGUCUGAUUCUGGUGAAUCUGCGAAUUCUGCUGUAUAACUC [A21U U25C A45U U78A]	0.05
UAACAGGGGGCCACAGCAGAUGCGCUCACCUCGCAGCCCCCGUCAGAUUCUGGUGAAUCUGCGAAUUCUGCUGUUUAUCUC [A21U U25C G30C U41C A75U]	0.13
UAACAGGGGGCCACAGCAGAUGCGCUCACGUCGCAGCCCCUGUCAGAUUCUGGUGAAUCUGCGAAUUCUGCAGUAUAUCUC [A21U U25C U72A]	0.09
UAACAGGGGGCCACAGCAGAUGUGCUCACGUCGCUGCCCCUGUCAGAUUCUGGUGAAUCUGCGAAUUCUGCUGUAUAUCUC [A21U C23U U25C A35U]	0.17

Variant	self-cleavage
UAACAGGGGGCCACAGCAGAUGCGUUCACGUCGCAGCCCCUGUCAGAUUUUGGUGAAUCCGCGAAUUCUGCUGUAUAUCCC [A21U C50U U60C U80C]	0.08
UAACAGGGGGCCACAGCAGAUGCGUUCACGUCGCAGCCCAGGUCAGAUCCAGGUGAAUCUGCGAAUUCUGCUGUAGGUCUC [A21U C40A U41G U49C U51A U76G A77G]	0.05
UAACAGGGGGCCACAGCAGAUGCGCUCACGCCGCAGCCCCUGUCGGAUUCUGGUGAAUCUGCGAAUUCUGCUGUAUAUCUC [A21U U25C U31C A45G]	0.18
UAACAGGGGGCCACAGCAGAUGCGUUCACGUCGCAGCCCCUGUCAGAUUCUGGUGGAUCCGCGAAUUCUGCUGUAUAUCUC [A21U A56G U60C]	0.06
UAACAGGGGGCCACAGCAGAUGCGUUCAAGUCGUAGCCCCUGUCAGAUUCUGGUGAAUCUGCGAAUUCUGCUGUAUAUCUC [A21U C29A C34U]	0.09
UAACAGGGGGCCACAGCAGAUGCGUUCACGUCGCAGCCCCUGUCAGGUUCUGGUGAAUCUGCGAAUUCUGCUGUAUUUCUU [A21U A47G A77U C81U]	0.29
UAACAGGGGGCCACAGCAGAUGCGUUCACGUCGCAGCCCCUGUCUGAUUCUGGUGAAUCUGCGAAUUCUGCUGUAUACCUC [A21U A45U U78C]	0.23
UAACAGGGGGCCACAGCAGAUGCGUUCACGUCGCAGCCCCUGUCAGAUUCUGGUGAGUCUGCGAAUUCUGCCGUAUAUCUC [A21U A57G U72C]	0.48
UAACAGGGGGCCACAGCAGAUGCGUUCACUUCGCAGCCCCUGUCAGAUUCUGGUGAAUCUGCCAAUUCUGCUGUAUAUCUC [A21U G30U G63C]	0.16
UAACAGGGGGCCACAGCAGAUGCGUUCACGUCGCAGCCCCUGUCAGAUUCUGGUGAGUCCGCGAAUUCUGCCGUAUAUCUC [A21U A57G U60C U72C]	0.11
UAACAGGGGGCCACAGCAGAUGCGUUCACGUCGCAGCCCCUGUCAGAUUCUGGUGGGUCUGCGAAUUCUGCUGUAUAUCCC [A21U A56G A57G U80C]	0.17
UAACAGGGGGCCACAGCAGAUGCGUUCACGUAGCAGCCCCUGUCAGAUUCCGGUGAACCUGCGAAUUCUGCUGUAUAUCUC [A21U C32A U51C U58C]	0.11
UAACAGGGGGCCACAGCAGAUGCGUUCACGUCGCAGCCCCUAUCAGAUUCUGGUGAGUCUGCGAAUUCUGCUGUAUAUCUC [A21U G42A A57G]	0.49
UAACAGGGGGCCACAGCAGAUGCGUUCACGUCGCAGCCACUGCCAGAUUCUGGUGAAUCUGCGAAUUCUGCUGUAUAUCUC [A21U C39A U43C]	0.36
UAACAGGGGGCCACAGCAGAUGCGUUCACGUCACAGCCCCUGUCAGAUUCUGGUGAAUCUGCGAAUUCUGCUGUAUACCUC [A21U G33A U78C]	0.07
UAACAGGGGGCCACAGCAGAUGCGUUCACGUGGCAGACCCUGUCAGAUCCUGGUGAAUCUGCGAAUUCUGCUGUAUAUCUC [A21U C32G C37A U49C]	0.09
UAACAGGGGGCCACAGCAGAUGCGAUCACGUCGCAGCCCCUGUCAGAUUCUGGCGAAUCUGCACAUUCUGCUGUAUAUCUC [A21U U25A U54C G63A A64C]	0.22
